Results from PubChem BioAssay AID2546 (National Center for Advancing Translational Sciences (NCATS), 2010).
The campaign covered roughly 310,000 compounds. About 11,000 (3.5%) were called active. The shares of active, inactive and inconclusive entries below differ from those in the screen. Calls follow the shape of the dose curve; as a rule, active = well fitted inhibition curve with a large enough effect; inconclusive = small, poorly fitted or top-dose-only effect, or effect the other way; inactive = flat fitted curve, though single readings scatter. Potencies of inconclusive entries are left out as doubtful fits.

Test: VP16 counterscreen qHTS for inhibitors of ROR gamma transcriptional activity;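 also: Gal4-VP16 expression switched on by copper sulfate through the metallothionein promoter; nearly all actives have a fitted effect of over 50% in size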
Conditions: Drosophila S2 Gal4-VP16 UAS-luciferase, luminescence, 20 h; series mostly up to 53.6 µM
Potency is read from the fitted curve at half-maximal effect; tags tell the direction and shape of the fitted curve.

SMILES | Potency
CCOC(=O)c1cc2c(=O)n3ccccc3nc2n(CCOC)c1=NC(=O)c1ccncc1 | inactive
CCc1ccc2oc(=O)cc(CN3CCCCC3)c2c1 | inactive
O=C(Oc1ccccc1)n1c(=S)oc2ccccc21 | inconclusive [inhibitor, single point]
O=[N+]([O-])c1ccc(N=Cc2ccc(Br)c([N+](=O)[O-])c2)cc1 | inactive
O=[N+]([O-])c1ccc(Nc2nc(NC3CCCCC3)nc(N3CCCC3)n2)cc1 | inconclusive [inhibitor, single point]
CCn1nc(C)c(CN2CCC(C(=O)Nc3cccc(-c4cccc(F)c4)c3)CC2)c1C | inconclusive [inhibitor, single point]
N#C/C(=C\c1c(Cl)cccc1Cl)c1nn(-c2ccccc2)c(-n2cccc2)c1C#N | inactive
Cc1ccc(S(=O)(=O)N(C)Cc2ccc(C(=O)NN=C(CC(C)C)CC(C)C)cc2)cc1 | inconclusive [inhibitor, single point]
CC(C)(C)OC(=O)[C@H](Cc1ccccc1)NC(=O)c1nc[nH]c1C(=O)NC1CCN(C(=O)OC(C)(C)C)CC1 | active: 7.08 µM
Cc1ccc(S(=O)(=O)NCC(=O)N(CC2CCCO2)C(C(=O)NCC2CCCO2)C(C)C)cc1 (centres undefined) | inactive
COc1ccccc1-c1nnc(SC2CCc3ccccc3NC2=O)s1 (centres undefined) | inactive
CS(=O)(=O)Cc1ccc(C(=O)NC2CCSc3ccccc32)cc1 (centres undefined) | inactive
S=C(c1ccc(-c2ccccc2Cl)o1)N1CCCCC1 | inconclusive [inhibitor, single point]
Cc1ccc(S(=O)(=O)Nc2ccc(S(=O)(=O)Nc3cc(C)nc(C)n3)cc2)cc1 | inactive
CCOc1ccc(N(CC(=O)NCc2ccccc2C)S(C)(=O)=O)cc1 | inconclusive [activator, single point]
c1ccc(C2=Nc3c(ccc4ccccc34)C(c3ccncc3)=NN2)cc1 | inactive
COC(=O)c1cccnc1N1CCN(c2ccccc2F)CC1 | inconclusive [inhibitor, single point]
COc1c(O)ccc(/C=C(\C#N)c2nc3ccccc3[nH]2)c1[N+](=O)[O-] | inconclusive [activator, single point]
COC(=O)c1cc(S(=O)(=O)NCc2ccccc2Cl)c[nH]1 | inconclusive [inhibitor, single point]
CC(C)CCC(CCN1CCOCC1)c1ccc2c(c1)OCO2 (centres undefined) | inconclusive [inhibitor, single point]
CN(C)c1ccc(-c2cncnc2Nc2ccc(F)cc2)cc1 | inconclusive [inhibitor, single point]
O=C(NC(=S)Nc1cccnc1Cl)c1ccc(Cl)cc1 | inconclusive [inhibitor, single point]
CCOC(=O)C1CCCN(C(=O)c2cc(-c3ccccc3)on2)C1 (centres undefined) | inconclusive [inhibitor, full curve]
CC1CCC(NC(=O)CCCn2sc3ccccc3c2=O)CC1 (centres undefined) | inconclusive [inhibitor, single point]
O=C1CSC(c2ccccc2)N1Nc1nc(N2CCOCC2)nc(N2CCOCC2)n1 (centres undefined) | inactive

SMILES | Potency
COC1(c2ccccc2)NC(=S)NN=C1c1ccccc1 (centres undefined) | inconclusive [inhibitor, single point]
O=C(/C=C/c1ccccc1)NC(=S)Nc1ccccc1 | active: 2 µM
Nc1ccc(C(=O)N/N=C/c2cn(Cc3cccc(F)c3)c3ccccc23)cc1 | inconclusive [inhibitor, single point]
CC1CCCCC12NC(=O)N(CC(=O)NC(=O)Nc1ccc3c(c1)OCCO3)C2=O (centres undefined) | inconclusive [activator, single point]
CCN(CC)S(=O)(=O)c1ccc(N(C)Cc2cccc(OC)c2OC)nc1 | inconclusive [inhibitor, single point]
Cc1onc(-c2ccccc2Cl)c1C(=O)Nc1nnc(-c2ccc(Br)cc2)s1 | active: 22.4 µM
N#C/C(=C\c1ccc(Sc2ccc(Cl)cc2)o1)c1nc2ccccc2[nH]1 | inconclusive [inhibitor, single point]
O=C(/C=C/c1ccco1)c1cccnc1 | inactive
O=C(N/N=C\c1ccc([N+](=O)[O-])s1)C1COc2ccccc2O1 (centres undefined) | active: 2.82 µM
CCCCOc1ccccc1NC(=O)C=C(C)C | inactive
CC(C)(C)OC(=O)C(Cl)(C(=O)OC(C)(C)C)c1ccc2nnnn2n1 | inconclusive [inhibitor, single point]
Cc1cccc(C)c1OCc1cc(C(=O)N(C)Cc2nc3ccccc3[nH]2)no1 | inconclusive [inhibitor, single point]
Cc1ccc(OCCn2c(C)nc3ccccc32)cc1 | inconclusive [inhibitor, single point]
CN1CCN(CC#Cc2ccccc2)CC1CCO (centres undefined) | inactive
COc1cc(C(=O)NC(=S)N2CCCCCC2)cc(OC)c1OC | active: 2.82 µM
CC(c1ccco1)N(C(=O)c1ccc(Cl)c([N+](=O)[O-])c1)c1ccccn1 (centres undefined) | inconclusive [inhibitor, partial curve]
Cc1onc(-c2ccccc2Cl)c1C(=O)Nc1c(C)n(C)n(-c2ccccc2)c1=O | inconclusive [inhibitor, single point]
COc1cccc2cc(/C(=N/O)c3ccc(Br)cc3)oc12 | inconclusive [inhibitor, single point]
COc1ccc(NS(=O)(=O)c2ccc(-c3coc(C)n3)cc2)cc1OC | active: 1.41 µM
Cc1ccc(S(=O)(=O)NCC(=O)OCC(=O)NC(=O)NC2CCCC2)cc1 | inactive
O=C(/C=C/c1ccco1)Nc1cccc(NC(=O)/C=C/c2ccco2)n1 | inconclusive [inhibitor, single point]
COc1ccc(CC/C(C)=N\NC(N)=O)cc1 | inactive
O=C(CSc1nnc2c(n1)[nH]c1ccc(S(=O)(=O)N3CCOCC3)cc12)Nc1ccccc1Cl | inactive
CCOC(=O)C1=C(c2ccccc2)N=c2s/c(=C\c3ccc(O)cc3)c(=O)n2C1c1cccs1 (centres undefined) | inactive
O=C(Nc1nccs1)c1csc2c1CCCC2 | active: 10 µM

SMILES | Potency
CC(C)C[C@H](NC(=O)c1nc[nH]c1C(=O)NCc1ccccc1)C(=O)OCc1ccccc1 | active: 11.2 µM
CCOC(=O)c1ccc(NC(=O)c2cccc(S(=O)(=O)N3CCOCC3)c2)cc1 | inactive
COc1ccc2c(c1OC)C(=O)OC2Nc1ccccc1S(=O)(=O)C(F)F (centres undefined) | inactive
CC1=C(C(=O)Nc2ccccc2)C(c2ccc(C)cc2)N=C(Nc2nc3ccccc3o2)N1 (centres undefined) | active: 11.2 µM
Cc1ccnc(NC(=O)c2ccc([N+](=O)[O-])o2)c1 | inconclusive [inhibitor, single point]
Cc1cc(N/N=C/c2cccc(Br)c2)nc2ccccc12 | inconclusive [inhibitor, single point]
O=C(c1ccc(Cl)c(S(=O)(=O)N2CCOCC2)c1)N1CCOCC1 | inactive
Cc1ccc(OC(=O)c2ccncc2)c(C)c1 | inactive
CCOC(=O)CN1C(=O)CC(c2ccc([N+](=O)[O-])cc2)C1=O (centres undefined) | inconclusive [inhibitor, single point]
N#CC1=C(N)SC(N)=C(C#N)C1c1c(Cl)cccc1Cl | inconclusive [inhibitor, single point]
CCOc1cc(/C=C2\SC(=S)N(Nc3ccccc3)C2=O)ccc1O | inconclusive [inhibitor, single point]
COc1cc(/C=N/O)cc(Br)c1OCc1cccc(Cl)c1 | active: 11.2 µM
CCC1=C2CC[C@H]3C(=O)N(c4ccccc4)C(=O)[C@H]3[C@H]2[C@@]2(C)C(=NCc3ccccc3)OC(=O)N2C1=O | inactive
CCc1c2c(nc3ccc(O)cc13)-c1cc3c(c(=O)n1C2)COC(=O)[C@]3(O)CC | inconclusive [inhibitor, full curve]
Cn1c(CNC(=O)CNC(=O)c2ccc(F)cc2)cc(=O)n(C)c1=O | inactive
CC(C)=CCC/C(C)=C/C=N/NC(=O)c1ccccc1[N+](=O)[O-] | active: 11.2 µM
Cc1nn(Cc2ccccc2)c(=O)c2nn(-c3ccc(Cl)cc3)c(C)c12 | inconclusive [inhibitor, single point]
CCC(=O)NC(=S)Nc1ccc(NC(=O)COc2ccccc2)cc1 | inconclusive [inhibitor, single point]
Cc1occc1C(=O)N/N=C/C(Br)=C\c1ccccc1 | inconclusive [inhibitor, single point]
CCc1c(C)[nH]n(-c2nc(-c3ccccc3)cs2)c1=O | inconclusive [inhibitor, single point]
Cc1ccccc1Nc1cc(C)c2c(O)cccc2n1 | inconclusive [inhibitor, partial curve]
CCOc1ccccc1NC(=O)Cn1nnc(-c2ccc(OCC)c(OCC)c2)n1 | inconclusive [inhibitor, single point]
COc1ccccc1-c1ccc2ncnc(N(C)Cc3ccco3)c2c1 | inconclusive [inhibitor, single point]
COc1ccc(-c2cc(CCCC(=O)N3CCN(c4ccc(OC)cc4)CC3)no2)cc1 | inconclusive [inhibitor, single point]
